For 22 molecules, binding signal results are on record in PMC12136788.

This is one part of the list.

The chains are these.
T1: UNK ZnF1-3 (human, UniProt Q9C0B0 31-174)
T1 sequence: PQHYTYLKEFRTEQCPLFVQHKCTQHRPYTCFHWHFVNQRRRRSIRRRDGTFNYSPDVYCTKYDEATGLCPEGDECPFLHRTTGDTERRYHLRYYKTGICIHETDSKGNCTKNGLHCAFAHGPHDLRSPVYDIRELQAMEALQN

B1: 77286315_77286435_1648_CDS_ENSMUSG00000036377_ENSMUST00000163347|mouse|control|control (ssRNA)
RNA: GGGAGUUCUACAGUCCGACGAUCAGGCUCCUCCGCGAUCUCUCUCUGCCCUGCGGAUUCCAGGUCUUCUCGUUCCCGUUCCCCUGGCUUCUCAAGGUCCCGCUGCAGUGGGCUUCGCUGGUCAGCAUCGUCCGUUAGCCAAGGCAACAGAGGAUUGAGCAUCA
B2: chr17:45747064:45747065:+_ENSG00000108424_ENST00000290158|hu_hu|hu_hu_hu_mus_True|98_108 (ssRNA)
RNA: GGGAGUUCUACAGUCCGACGAUCGCCUACAGUCCAUGCAGCUGUAUCUCGAACAACUACACUGGGGUCUUUCAUUAGUUCUAUUAGGGUGGGCAUAGCCUGUAUGACUAAUGGUUUCAGUUGAUUAGGCUCUGGUCCUUCCAACAACAGAGGAUUGAGCAUCA
B3: chr9:19378429:19378430:-_ENSG00000137154_ENST00000315377|hu_mus|motif|central (ssRNA)
RNA: GGGAGUUCUACAGUCCGACGAUCACAACAUACUGGCGGACAUCAUCUUCUUUGGAGAGAUUAAAAAGCUUGCGGAUUCGGCGGGCCCUUUUAGGUCCCAACCGACGAGGCACAGUAGUGUCUGUCAGUCCAGGAAUAUCCUUCCAACAGAGGAUUGAGCAUCA
B4: 97413096_97413216_384_3pUTR_ENSMUSG00000038453_ENSMUST00000107596|mouse|control|control (ssRNA)
RNA: GGGAGUUCUACAGUCCGACGAUCUUCUGGAGCCCGCUGAGGGCCUCCAGGCUCUGGGCAGCGAUCACCGUGUGCCGGCGCUCCGAGGUGUGCACCAGCCCCACGUUGGAGAAGCGCCGGCCCCCGCUGCCACCUCCGCCCCCACAACAGAGGAUUGAGCAUCA
B5: 29804774_29806149_1691_CDS_ENSMUSG00000019715_ENSMUST00000019859|mouse|control|control (ssRNA)
RNA: GGGAGUUCUACAGUCCGACGAUCGGAAUCCGUCACUUGGUAGCCAAGCAUCCUUUGAUAGUCCUCCAAGGCCAUCCCUUCCUUGAAAGCUGGGUAGAAAGGAACAGAGUAUGGACACUUCUUGUGGAGAUGAGCAAGAAUGAGCAACAGAGGAUUGAGCAUCA
B6: chr2:117093540:117093541:+_ENSMUSG00000027349_ENSMUST00000028825|mus_mus|motif|central (ssRNA)
RNA: GGGAGUUCUACAGUCCGACGAUCCAAUGUGACUGUUGUCUUGGGCGACAGAGCAUAACGCUUGGGCUGGUAAAUUCUUGCGGUGUUAUCUGUUUUUGCCUUUGCUCUAUCGGACCAUCCAAAGGACUGCACUGUCACAUCCAACAACAGAGGAUUGAGCAUCA
B7: chr10:121026873:121026874:-_ENSMUSG00000034667_ENSMUST00000039810|mus_hu|motif|central (ssRNA)
RNA: GGGAGUUCUACAGUCCGACGAUCUCUUUUGUAGAAUACAUAUUGGCGUUGAAACAGUUUAAAGAAAUGAAAUGGCGGUCGGCAAAAAGUUAGUUUUGAUUGCUGUCUUCCCCCAUACUUUGUGUCUUCACACAUAAAGAAAAUCAACAGAGGAUUGAGCAUCA
B8: chr12:25667166:25667167:+_ENSMUSG00000036333_ENSMUST00000066652|mus_mus|FALSE|FALSE (ssRNA)
RNA: GGGAGUUCUACAGUCCGACGAUCUCUUCCACAUAAUUUAUCACACUCUGUGAUAUAAGAACCGACAUUUUCACAGAAAUCUAUAGCCGACUUUAAUUCACCGUGUCACGGCCUGGCCGAAGACGGCGCCCUCAGCUCUGCAGACAACAGAGGAUUGAGCAUCA
B9: chr17:73195629:73195630:+_ENSMUSG00000039770_ENSMUST00000045174|mus_hu|FALSE|FALSE (ssRNA)
RNA: GGGAGUUCUACAGUCCGACGAUCACGGGUACCACCGAUAUGAUCAAGGAAAAUUCUGCCCAUUUUUAUGGCUGAAGUUCUAAAAACCCUGAGCGGCGGUGAGAUCCGCGGCUGCCAGCGGCUUGUCGCUCUUCAGCUGGUAUGCAACAGAGGAUUGAGCAUCA
B10: chr18:35731670:35731671:+_ENSMUSG00000037236_ENSMUST00000166793|perfect_dup|FALSE|FALSE (ssRNA)
RNA: GGGAGUUCUACAGUCCGACGAUCUGACCCUGUGAGUCCCUACUGAGAGAUGACUGCUGGAAUGACUUGGACAUUGUAGAACUAGCUCUUGUCUAUUUUAUAGAUUAAAAAAAAAAAUUUUUUUAAAGACGGCCAAAAAGAAAGCAACAGAGGAUUGAGCAUCA
B11: chr1:16453270:16453271:-_ENSMUSG00000025920_ENSMUST00000027052|mus_mus|FALSE|FALSE (ssRNA)
RNA: GGGAGUUCUACAGUCCGACGAUCUUAUACUGCUCCCUUCGGAUUCCCAUGUCUGCUCGCCAAGACUCAGCUGCACCGAAAACAUCUGAUUUAUCUGAAGCAUGUUAAGACAAUAUUGAUCAAACUUCCGUAUCCCUCACAGCUCAACAGAGGAUUGAGCAUCA
B12: chr5:145543945:145543946:-_ENSG00000133706_ENST00000545646|hu_hu|hu_hu_hu_mus_True|8_38 (ssRNA)
RNA: GGGAGUUCUACAGUCCGACGAUCCUGAACGGCCAGUGGUGGGAAAUAAUCAAGCCAGUGCUCUGCUUCAGAAAACUUCACUAUGUCGUCAUCAGAGAGGCCAAGGGAUUUCAUAAUGUCCCACUGGUAUUUAGAAGAUCCUGCCAACAGAGGAUUGAGCAUCA
B13: 114201994_114203277_838_CDS_ENSG00000023041_ENST00000369405|human|control|control (ssRNA)
RNA: GGGAGUUCUACAGUCCGACGAUCAGCAUGGAUACAACCCAGUGGUGCUAAAAGGAGAAACAGUGUGAACGAAGCAUGAUUUUGGUAACCACAACAGUUGUUGAUCCAAGGACAGUGAUGGUCCAUCUUCAUCACACAUCUGUUCAACAGAGGAUUGAGCAUCA
B14: 31608904_31609115_2755_CDS_ENSG00000204463_ENST00000375976|human|control|control (ssRNA)
RNA: GGGAGUUCUACAGUCCGACGAUCAAGCUCCAUCUGCUGUCCCCCCAAGCAGUGCAGGUUUAGGGCCAGGCAUUCAAACAGGCCUUGGUUACACAACUCCAGCAACCGGGCCCCAAAUCCACUAUCUGUGCAAUGCAGCACAUGCAACAGAGGAUUGAGCAUCA
B15: chr2:183853844:183853845:-_ENSG00000061676_ENST00000360982|hu_hu|FALSE|FALSE (ssRNA)
RNA: GGGAGUUCUACAGUCCGACGAUCGUGAAUGUGGAAAACUUCAUCCCGAAAGAGAGAGAGGCAAGAGCUACUUUGAAGAGCUAGUUUCCAAAGGUUCAGUGCUGUAGCGUCAGUAUUUAGGAUCCCAUGGCACAAAAUAAAGCCCAACAGAGGAUUGAGCAUCA
B16: chr2:131104119:131104120:+_ENSG00000136718_ENST00000452955|hu_mus|FALSE|FALSE (ssRNA)
RNA: GGGAGUUCUACAGUCCGACGAUCGAUGACAGAGGGGUUAUUUAGAUCCCUCCAGUCUCCACUUAGGAUUAGUGAAUCUGUCUGUGACAAGUCUCUGAUCCAGGAUUCCAAGUCUGCAUUCUGACUGGCAAGUAGCUCAGCUCACAACAGAGGAUUGAGCAUCA
B17: chr4:62047152:62047153:+_ENSMUSG00000066150_ENSMUST00000084526|mus_hu|FALSE|FALSE (ssRNA)
RNA: GGGAGUUCUACAGUCCGACGAUCUCCAGCCAUUUCUCCAGCUGUAUUGAUCACCAAACCGGAAAACAGUAGUUCCACAUUCUUAAAGCCAAAGUAGAAGGUCAUAGGCAUCAUCAUCAUGCUGCUGUCUCCUCCACCAUGGGACAACAGAGGAUUGAGCAUCA
B18: chr1:156905105:156905106:-_ENSG00000132694_ENST00000368194|hu_mus|FALSE|FALSE (ssRNA)
RNA: GGGAGUUCUACAGUCCGACGAUCUCCUGACACUGAGAAGGCCUAGGCUUCAGAGGUGGGCAGGCCCUGGAGCUUGACAGCACUGGAAUCUGGGAGACCUCCCUGCCAGUGGGACAUAAACAAUCAUGGCCCUGUGCGGGGCUGCAACAGAGGAUUGAGCAUCA
B19: chr1:244855233:244855234:+_ENSG00000121644_ENST00000302550|hu_mus|hu_hu_hu_mus_True|28_38 (ssRNA)
RNA: GGGAGUUCUACAGUCCGACGAUCCAUCAGAUGGUAGGCGUUGCCCUUAUACUCUUUCCCCAGUUCUUCUACAAUUUUCUCUAUAUCAUCUUCUAGAAAGUCCGUGCUCCCUAAAACAACAGCUUCUUUAAAUUUAAAUGUUUCCAACAGAGGAUUGAGCAUCA
B20: 26019943_26020063_1296_ncRNA_ENSMUSG00000025730_ENSMUST00000166619|mouse|control|control (ssRNA)
RNA: GGGAGUUCUACAGUCCGACGAUCAGGAGGGAUUAGUGGGGUUUCCCAGGUGCAUCAACGGCUCUUCUCCUAGGUCUUAGGAGCUGAAACCUUGCCUAUGCCCAGCAUACUGAUCACCUUUGUCAGAUAUGGAAGCCGGAGCCACAACAGAGGAUUGAGCAUCA
B21: chr1:163116782:163116783:-_ENSG00000143248_ENST00000313961|hu_mus|FALSE|FALSE (ssRNA)
RNA: GGGAGUUCUACAGUCCGACGAUCCCAUGAAAGGGGACACUUGCAUCUGUUUUUCUUUUCAGCCUGGUUAAAAUAGCAGUCUAUCACCUAUUCUUUGCACAGACAGCUUUAUGUUAAACUGGAUAUUUUUGUGACUUAGACUGACAACAGAGGAUUGAGCAUCA
B22: chrX:20248820:20248821:+_ENSMUSG00000001924_ENSMUST00000001989|mus_mus|mus_mus_mus_hu_True|58_78 (ssRNA)
RNA: GGGAGUUCUACAGUCCGACGAUCGGCGAAGUCCGUCACCACAAAGUCAGGUUCUGCCAGUGAUGCUACCAAGGAUUUAAAACUAAUCUUCUUAGGUACUUUGACCUGACUGACGAUGCCUCCACGGAUGUAGUCGGAGAAGUUCAACAGAGGAUUGAGCAUCA

The target in this test is T1, UNK ZnF1-3. Briefly: nsRBNS (natural sequence RNA bind-n-seq); RBNS binding buffer (assumed for nsRBNS): 25 mM Tris pH 7.5, 150 mM KCl, 3 mM MgCl2, 0.01% Triton X-100, 500 ug/ml BSA, 20 U/ml SUPERase-In, 4 C; UNK is unkempt and MSI1 is Musashi-1; names of the RNAs are library labels; protein concentration not given here; high values mean tight binding.
As to B1, the binding signal amounted to 0.489 enrichment R.

Molecule B2 came in with a binding signal of 0.741 enrichment R. In turn, B3 yielded a binding signal of 0.948 enrichment R.

The molecule B4 returned a binding signal of 0.375 enrichment R. B5 gave a binding signal of 1.27 enrichment R. As for B6, the binding signal was 0.39 enrichment R. As for B7, the figure is 1.05 enrichment R. Turning to B8, the binding signal worked out at 0.907 enrichment R.

B9 displayed a binding signal of 0.854 enrichment R. In the case of B10, the binding signal came out at 2.84 enrichment R. As to B11, the binding signal turned out to be 1.14 enrichment R. To B12 belongs 1.1 enrichment R; to B13, 1.54 enrichment R. The molecule B14 came in with a binding signal of 0.715 enrichment R. B15 yielded a binding signal of 2.09 enrichment R.

Molecule B16 yielded a binding signal of 0.437 enrichment R. To B17 belongs 1.37 enrichment R. For the molecule B18, the binding signal was found to be 1.51 enrichment R. On to B19, for which the binding signal came to 1.58 enrichment R.

In the case of B20, the binding signal was 1.18 enrichment R. With B21, the binding signal was determined as 0.921 enrichment R.

Turning to B22, the binding signal was 0.856 enrichment R.
